Paper PMC12820563
Some of the results follow. The list includes weakly bound sequences.

Each sequence was assayed against T1, MBP-FoxP3dN (UniProt Q99JB6) (assay: PD-seq (MBP pull-down with sequencing)). Details: 20 mM Tris-HCl pH 7.5, 100 mM NaCl, 1.5 mM MgCl2, 0.4 uM protein, 0.1 uM dsDNA library, 30 min, room temperature, amylose pull-down; high values mean tight binding; double strand, one strand shown.
T1 sequence: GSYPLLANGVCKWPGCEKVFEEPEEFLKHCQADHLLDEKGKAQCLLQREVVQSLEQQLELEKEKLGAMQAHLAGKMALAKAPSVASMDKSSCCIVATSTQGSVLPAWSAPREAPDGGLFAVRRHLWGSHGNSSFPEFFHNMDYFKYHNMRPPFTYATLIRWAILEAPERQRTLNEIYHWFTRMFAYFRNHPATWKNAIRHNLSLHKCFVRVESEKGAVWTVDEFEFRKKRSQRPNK

| Sequence | binding signal (RPM ratio (pull-down/input)) |
| --- | --- |
| GATGATTGTTCTCCCAGCTGATGAATTATATCTCTCGAGTAAACAAATTTTCCTAATCTTTCTGTTCAAGCGCCATCTAC | 0.584 |
| GATGATTGTTCTCCCAGCTGATGAATTAATTCGCTCGAGTAAACAAATTTTCCTAATCTTTCTGTTCAAGCGCCATCTAC | 0.369 |
| GATGATTGTTCTCCCAGCTGATGAATTCTTGTCATCGAGTAAACAAATTTTCCTAATCTTTCTGTTCAAGCGCCATCTAC | 0.625 |
| GATGATTGTTCTCCCAGCTGATGAATTGGTAATTTCGAGTAAACAAATTTTCCTAATCTTTCTGTTCAAGCGCCATCTAC | 0.629 |
| GATGATTGTTCTCCCAGCTGATGAATTGCATGGGTCGAGTAAACAAATTTTCCTAATCTTTCTGTTCAAGCGCCATCTAC | 2.12 |
| GATGATTGTTCTCCCAGCTGATGAATTGATGCTCTCGAGTAAACAAATTTTCCTAATCTTTCTGTTCAAGCGCCATCTAC | 2.04 |
| GATGATTGTTCTCCCAGCTGATGAATTGACGTGTTCGAGTAAACAAATTTTCCTAATCTTTCTGTTCAAGCGCCATCTAC | 0.695 |
| GATGATTGTTCTCCCAGCTGATGAATTGCGCGTGTCGAGTAAACAAATTTTCCTAATCTTTCTGTTCAAGCGCCATCTAC | 4.88 |
| GATGATTGTTCTCCCAGCTGATGAATTCTTTCTATCGAGTAAACAAATTTTCCTAATCTTTCTGTTCAAGCGCCATCTAC | 0.24 |
| GATGATTGTTCTCCCAGCTGATGAATTTTCCTATTCGAGTAAACAAATTTTCCTAATCTTTCTGTTCAAGCGCCATCTAC | 0.286 |
| GATGATTGTTCTCCCAGCTGATGAATTATGAGGGTCGAGTAAACAAATTTTCCTAATCTTTCTGTTCAAGCGCCATCTAC | 0.401 |
| GATGATTGTTCTCCCAGCTGATGAATTCGCACAATCGAGTAAACAAATTTTCCTAATCTTTCTGTTCAAGCGCCATCTAC | 0.383 |
| GATGATTGTTCTCCCAGCTGATGAATTGTGCTGGTCGAGTAAACAAATTTTCCTAATCTTTCTGTTCAAGCGCCATCTAC | 1.35 |
| GATGATTGTTCTCCCAGCTGATGAATTGATTGGCTCGAGTAAACAAATTTTCCTAATCTTTCTGTTCAAGCGCCATCTAC | 1.19 |
| GATGATTGTTCTCCCAGCTGATGAATTGGTGGGCTCGAGTAAACAAATTTTCCTAATCTTTCTGTTCAAGCGCCATCTAC | 0.487 |
| GATGATTGTTCTCCCAGCTGATGAATTTATTGGCTCGAGTAAACAAATTTTCCTAATCTTTCTGTTCAAGCGCCATCTAC | 4.71 |
| GATGATTGTTCTCCCAGCTGATGAATTTTACGTGTCGAGTAAACAAATTTTCCTAATCTTTCTGTTCAAGCGCCATCTAC | 0.455 |
| GATGATTGTTCTCCCAGCTGATGAATTGGTATTCTCGAGTAAACAAATTTTCCTAATCTTTCTGTTCAAGCGCCATCTAC | 1.76 |
| GATGATTGTTCTCCCAGCTGATGAATTGACTCACTCGAGTAAACAAATTTTCCTAATCTTTCTGTTCAAGCGCCATCTAC | 0.407 |
| GATGATTGTTCTCCCAGCTGATGAATTAATTTCGTCGAGTAAACAAATTTTCCTAATCTTTCTGTTCAAGCGCCATCTAC | 0.808 |
| GATGATTGTTCTCCCAGCTGATGAATTTGCTCTTTCGAGTAAACAAATTTTCCTAATCTTTCTGTTCAAGCGCCATCTAC | 0.605 |

| Sequence | binding signal (RPM ratio (pull-down/input)) |
| --- | --- |
| GATGATTGTTCTCCCAGCTGATGAATTGCTCGGGTCGAGTAAACAAATTTTCCTAATCTTTCTGTTCAAGCGCCATCTAC | 0.34 |
| GATGATTGTTCTCCCAGCTGATGAATTGTTTACTTCGAGTAAACAAATTTTCCTAATCTTTCTGTTCAAGCGCCATCTAC | 7.35 |
| GATGATTGTTCTCCCAGCTGATGAATTAGACCACTCGAGTAAACAAATTTTCCTAATCTTTCTGTTCAAGCGCCATCTAC | 0.405 |
| GATGATTGTTCTCCCAGCTGATGAATTGTTTAGATCGAGTAAACAAATTTTCCTAATCTTTCTGTTCAAGCGCCATCTAC | 5.2 |
| GATGATTGTTCTCCCAGCTGATGAATTTGTTCCCTCGAGTAAACAAATTTTCCTAATCTTTCTGTTCAAGCGCCATCTAC | 3.28 |
| GATGATTGTTCTCCCAGCTGATGAATTTATCCTTTCGAGTAAACAAATTTTCCTAATCTTTCTGTTCAAGCGCCATCTAC | 0.717 |
| GATGATTGTTCTCCCAGCTGATGAATTGTGGAAGTCGAGTAAACAAATTTTCCTAATCTTTCTGTTCAAGCGCCATCTAC | 0.274 |
| GATGATTGTTCTCCCAGCTGATGAATTTGCTTAATCGAGTAAACAAATTTTCCTAATCTTTCTGTTCAAGCGCCATCTAC | 1.39 |
| GATGATTGTTCTCCCAGCTGATGAATTAGCACTGTCGAGTAAACAAATTTTCCTAATCTTTCTGTTCAAGCGCCATCTAC | 0.423 |
| GATGATTGTTCTCCCAGCTGATGAATTTTTCAGGTCGAGTAAACAAATTTTCCTAATCTTTCTGTTCAAGCGCCATCTAC | 0.14 |
| GATGATTGTTCTCCCAGCTGATGAATTGTCGGAATCGAGTAAACAAATTTTCCTAATCTTTCTGTTCAAGCGCCATCTAC | 0.241 |
| GATGATTGTTCTCCCAGCTGATGAATTCCGGACTTCGAGTAAACAAATTTTCCTAATCTTTCTGTTCAAGCGCCATCTAC | 0.296 |
| GATGATTGTTCTCCCAGCTGATGAATTGGGCCAATCGAGTAAACAAATTTTCCTAATCTTTCTGTTCAAGCGCCATCTAC | 0.613 |
| GATGATTGTTCTCCCAGCTGATGAATTTCCAAGGTCGAGTAAACAAATTTTCCTAATCTTTCTGTTCAAGCGCCATCTAC | 0.17 |
| GATGATTGTTCTCCCAGCTGATGAATTGCGCATTTCGAGTAAACAAATTTTCCTAATCTTTCTGTTCAAGCGCCATCTAC | 8.05 |
| GATGATTGTTCTCCCAGCTGATGAATTACACGAATCGAGTAAACAAATTTTCCTAATCTTTCTGTTCAAGCGCCATCTAC | 0.344 |
| GATGATTGTTCTCCCAGCTGATGAATTTAGTTGGTCGAGTAAACAAATTTTCCTAATCTTTCTGTTCAAGCGCCATCTAC | 3.61 |
| GATGATTGTTCTCCCAGCTGATGAATTGTACTAGTCGAGTAAACAAATTTTCCTAATCTTTCTGTTCAAGCGCCATCTAC | 0.443 |
| GATGATTGTTCTCCCAGCTGATGAATTACGACAGTCGAGTAAACAAATTTTCCTAATCTTTCTGTTCAAGCGCCATCTAC | 0.518 |
| GATGATTGTTCTCCCAGCTGATGAATTTATAGAGTCGAGTAAACAAATTTTCCTAATCTTTCTGTTCAAGCGCCATCTAC | 0.467 |
| GATGATTGTTCTCCCAGCTGATGAATTCTATCCCTCGAGTAAACAAATTTTCCTAATCTTTCTGTTCAAGCGCCATCTAC | 0.424 |

| Sequence | binding signal (RPM ratio (pull-down/input)) |
| --- | --- |
| GATGATTGTTCTCCCAGCTGATGAATTGTACGTGTCGAGTAAACAAATTTTCCTAATCTTTCTGTTCAAGCGCCATCTAC | 0.647 |
| GATGATTGTTCTCCCAGCTGATGAATTACCGTGGTCGAGTAAACAAATTTTCCTAATCTTTCTGTTCAAGCGCCATCTAC | 0.409 |
| GATGATTGTTCTCCCAGCTGATGAATTCTACATCTCGAGTAAACAAATTTTCCTAATCTTTCTGTTCAAGCGCCATCTAC | 0.508 |
| GATGATTGTTCTCCCAGCTGATGAATTGTAGGTTTCGAGTAAACAAATTTTCCTAATCTTTCTGTTCAAGCGCCATCTAC | 0.853 |
| GATGATTGTTCTCCCAGCTGATGAATTCATCAGATCGAGTAAACAAATTTTCCTAATCTTTCTGTTCAAGCGCCATCTAC | 0.221 |
| GATGATTGTTCTCCCAGCTGATGAATTTGTGGCGTCGAGTAAACAAATTTTCCTAATCTTTCTGTTCAAGCGCCATCTAC | 4.33 |
| GATGATTGTTCTCCCAGCTGATGAATTTGCCAGTTCGAGTAAACAAATTTTCCTAATCTTTCTGTTCAAGCGCCATCTAC | 0.654 |
| GATGATTGTTCTCCCAGCTGATGAATTAATCACATCGAGTAAACAAATTTTCCTAATCTTTCTGTTCAAGCGCCATCTAC | 0.821 |
| GATGATTGTTCTCCCAGCTGATGAATTAGTGAACTCGAGTAAACAAATTTTCCTAATCTTTCTGTTCAAGCGCCATCTAC | 0.464 |
| GATGATTGTTCTCCCAGCTGATGAATTCTACACGTCGAGTAAACAAATTTTCCTAATCTTTCTGTTCAAGCGCCATCTAC | 0.352 |
| GATGATTGTTCTCCCAGCTGATGAATTAGTATGGTCGAGTAAACAAATTTTCCTAATCTTTCTGTTCAAGCGCCATCTAC | 2.48 |
| GATGATTGTTCTCCCAGCTGATGAATTGCAGAGGTCGAGTAAACAAATTTTCCTAATCTTTCTGTTCAAGCGCCATCTAC | 0.465 |
| GATGATTGTTCTCCCAGCTGATGAATTTGCAAGTTCGAGTAAACAAATTTTCCTAATCTTTCTGTTCAAGCGCCATCTAC | 1.06 |
| GATGATTGTTCTCCCAGCTGATGAATTAATTGGGTCGAGTAAACAAATTTTCCTAATCTTTCTGTTCAAGCGCCATCTAC | 1.88 |
| GATGATTGTTCTCCCAGCTGATGAATTGTAAATATCGAGTAAACAAATTTTCCTAATCTTTCTGTTCAAGCGCCATCTAC | 2.18 |
| GATGATTGTTCTCCCAGCTGATGAATTAGCATAATCGAGTAAACAAATTTTCCTAATCTTTCTGTTCAAGCGCCATCTAC | 0.643 |
| GATGATTGTTCTCCCAGCTGATGAATTACGTGAATCGAGTAAACAAATTTTCCTAATCTTTCTGTTCAAGCGCCATCTAC | 0.355 |
| GATGATTGTTCTCCCAGCTGATGAATTAGGTATATCGAGTAAACAAATTTTCCTAATCTTTCTGTTCAAGCGCCATCTAC | 1.37 |
| GATGATTGTTCTCCCAGCTGATGAATTTCACGCTTCGAGTAAACAAATTTTCCTAATCTTTCTGTTCAAGCGCCATCTAC | 0.501 |
| GATGATTGTTCTCCCAGCTGATGAATTGAGTACATCGAGTAAACAAATTTTCCTAATCTTTCTGTTCAAGCGCCATCTAC | 0.551 |
| GATGATTGTTCTCCCAGCTGATGAATTGGCATCCTCGAGTAAACAAATTTTCCTAATCTTTCTGTTCAAGCGCCATCTAC | 4.28 |
